Results as given in PubChem BioAssay AID1963439 (Molecular Pharmacology Branch, DTP, NCI, 2024).
Not every entry of the source has a single result; some have several. Only these are listed. An entry can have further records. Results that share an entry repeat one measurement in other runs, samples, wells, individuals or studies. A date in brackets names the month of the test. Counts like (3×) say how often a value occurs here.

Tested on: NCI-H196 complex spheroids with HUVEC/MSC, growth % T/C
Assay: Anticancer human tumor NCI-H196 cell line growth inhibition [Asc];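 further: spheroids exposed to compound for 7 days before measurement; 100% = DMSO vehicle control wells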
Settings: stronger effect = lower value
Method: Multicellular complex tumor spheroid response to apoptosis pathway targeting inhibitors Alrizomadlin, Pelcitoclax, and Dasminapant in combination with a variety of drugs and investigational agents in selected tumor cell lines
The MDM2 inhibitor alrizomadlin, the Bcl-2/Bcl-xL inhibitor pelcitoclax, and the IAPs inhibitor dasminapant were evaluated both individually and in combination with standard of care and investigational anticancer small molecules within a complex spheroid model of solid tumors. . Complex spheroids include a stromal component modeled by human endothelial cells (HUVEC) and fibroblasts modeled by human mesenchymal stem cells (MSCs). The concentration ranges selected for each drug and investigational agent were based upon clinically achievable concentrations if the clinical Cmax of the agent was known.
Compounds. […] If the clinical Cmax for an agent had not been determined, the highest concentration tested was 10 microM. […]

Row | Structure (SMILES) | viability, T/C (compound alone 10 µM) | viability, T/C (compound alone 3 µM)
1 | C=C(F)C(=O)N1CCN(c2nc(OCC3CCCN3C)nc3c2CCN(c2cccc4cccc(Cl)c24)C3)CC1CC#N (configuration not stated) | 94.5%, 84.3% [2022-09] and 1.85% [2022-10] | 
2 | CCN1C(C(=O)NC23CCC(C(=O)O)(CC2)CC3)C(c2cccc(Cl)c2F)C2(C(=O)Nc3cc(Cl)ccc32)C12CCCCC2 (configuration not stated) |  | 112, 131, 120 (3×), 113, 111 (2×), 121, 124, 109, 115, 114, 105% [2022-09] and 119% [2022-10]
